Reference: US20100075953A1, “SUBSTITUTED PIPERAZINES, (1,4) DIAZEPINES, AND 2,5-DIAZABICYCLO (2.2.1) HEPTANES AS HISTAMINE H1 AND/OR H3 ANTAGONISTS OR HISTAMINE H3 REVERSE ANTAGONISTS” (Glaxo Group Limited, priority 2002, published 2010)
Some results were stated once for a whole list of compounds, not compound by compound.

Experiments:
human H1 receptor = biological target: T1, human H1 receptor (Homo sapiens, UniProt P35367); assay: Histamine H1 functional antagonist assay; format: cell-based; conditions: CHO cells expressing human H1, suppression of histamine induced increase in fluorescence (FLIPR)
T1 construct: expressed in transfected cells

histamine H3 receptor = histamine H3 receptor (Homo sapiens, UniProt Q9Y5N1); assay: Histamine H3 functional antagonist assay; conditions: membranes of CHO K1 cells expressing human H3; [35S]GTPgammaS SPA; histamine 0.3 μM
Chain of histamine H3 receptor (Q9Y5N1 whole entry): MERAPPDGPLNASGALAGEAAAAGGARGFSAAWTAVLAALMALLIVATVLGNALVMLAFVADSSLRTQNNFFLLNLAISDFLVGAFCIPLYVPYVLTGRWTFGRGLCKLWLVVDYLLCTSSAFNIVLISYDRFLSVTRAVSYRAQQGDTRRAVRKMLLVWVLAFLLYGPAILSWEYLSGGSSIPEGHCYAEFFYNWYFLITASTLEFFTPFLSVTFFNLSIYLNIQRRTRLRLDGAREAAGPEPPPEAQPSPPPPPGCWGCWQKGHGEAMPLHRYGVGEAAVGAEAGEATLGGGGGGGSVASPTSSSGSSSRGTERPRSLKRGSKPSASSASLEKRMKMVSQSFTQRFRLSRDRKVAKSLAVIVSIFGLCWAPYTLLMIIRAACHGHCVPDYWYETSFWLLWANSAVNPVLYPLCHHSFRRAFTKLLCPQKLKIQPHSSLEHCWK

T1 sequence (P35367 whole entry): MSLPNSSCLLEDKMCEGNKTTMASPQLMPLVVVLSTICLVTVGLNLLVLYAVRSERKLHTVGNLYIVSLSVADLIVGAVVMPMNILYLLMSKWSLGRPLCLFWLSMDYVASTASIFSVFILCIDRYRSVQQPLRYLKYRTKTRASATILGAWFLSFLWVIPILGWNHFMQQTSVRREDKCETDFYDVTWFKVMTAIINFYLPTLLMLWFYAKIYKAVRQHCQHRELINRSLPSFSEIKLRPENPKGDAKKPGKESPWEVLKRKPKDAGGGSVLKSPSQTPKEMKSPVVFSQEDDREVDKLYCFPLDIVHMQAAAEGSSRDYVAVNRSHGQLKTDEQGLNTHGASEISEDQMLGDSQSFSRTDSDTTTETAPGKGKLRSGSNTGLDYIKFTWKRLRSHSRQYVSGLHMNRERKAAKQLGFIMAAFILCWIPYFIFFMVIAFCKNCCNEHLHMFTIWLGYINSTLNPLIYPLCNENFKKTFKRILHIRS

| SMILES | antagonism in the histamine H1 functional antagonist assay (pKb) (human H1 receptor) | antagonism in the histamine H3 functional antagonist assay (pKb) (histamine H3 receptor) | further results |
| --- | --- | --- | --- |
| Cc1ccc(C(C)C)cc1C(=O)N1CCN(c2ccc(OCCCN3CCCC(C)C3)cc2)CC1 (stereo not drawn) [Example E195] | > 7.3 pKb | > 6.5 pKb | antagonism in the histamine H1 functional antagonist assay (pKb) (human H1 receptor; listed as Example E195): > 6.5 pKb |
| COc1ccc(C)cc1C(=O)N1CCN(c2ccc(OCCCN3CCCCC3)cc2)CC1 [Example E80] | > 6.5 pKb | > 6.5 pKb | – |
| CN(CCCOc1ccc(N2CCN(C(=O)c3cccc4ccccc34)CC2)cc1)C1CCCC1.O=C(O)C(F)(F)F [Example E68] | > 6.5 pKb | > 6.5 pKb | – |
| CC1CCCN(CCCOc2ccc(N3CCN(C(=O)c4cccc5ccccc45)CC3)cc2)C1.O=C(O)C(F)(F)F (stereo not drawn) [Example E71] | > 6.5 pKb | > 6.5 pKb | – |
| Cc1c(C(=O)N2CCN(c3ccc(OCCCN4CCCCC4)cc3)CC2)c2ccccc2n1C [Example E58] | > 6.5 pKb | > 6.5 pKb | – |
| CCc1ccc(C)c(C(=O)N2CCN(c3ccc(OCCCN4CCCC(C)C4)cc3)CC2)c1 (stereo not drawn) [Example E192] | > 6.5 pKb | > 6.5 pKb | – |
| Cc1ccc(C(C)C)c(C(=O)N2CCN(c3ccc(OCCCN4CCCCCCC4)cc3)CC2)c1.O=C(O)C(F)(F)F [Example E162] | > 7.3 pKb | > 6.5 pKb | antagonism in the histamine H1 functional antagonist assay (pKb) (human H1 receptor; listed as Example E162): > 6.5 pKb |
| COC(=O)Cc1cccc(C(=O)N2CCN(c3ccc(OCCCN4CCCCC4)cc3)CC2)c1 [Example E90] | > 6.5 pKb | > 6.5 pKb | – |
| Cc1ccc(C(C)C)c(C(=O)N2CCN(c3ccc(OCCCN(C)C4CCCC4)cc3)CC2)c1 [Example E172] | > 6.5 pKb | > 6.5 pKb | – |
| Cc1ccc(C)c(C(=O)N2CCN(c3ccc(OCCCN4CCCCC4)cc3)CC2)c1 [Example E114] | > 7.3 pKb | > 6.5 pKb | antagonism in the histamine H1 functional antagonist assay (pKb) (human H1 receptor; listed as Example E114): > 6.5 pKb |
| CCSc1cccc(C(=O)N2CCN(c3ccc(OCCCN4CCCC(C)(C)C4)cc3)CC2)c1.O=C(O)C(F)(F)F [Example E207] | > 7.3 pKb | > 6.5 pKb | antagonism in the histamine H1 functional antagonist assay (pKb) (human H1 receptor; listed as Example E207): > 6.5 pKb |
| Cc1c(C(=O)N2CCN(c3ccc(OCCCN4CCCC(C)(C)C4)cc3)CC2)c2ccccc2n1C.O=C(O)C(F)(F)F [Example E217] | > 7.3 pKb | > 6.5 pKb | antagonism in the histamine H1 functional antagonist assay (pKb) (human H1 receptor; listed as Example E217): > 6.5 pKb |
| O=C(c1cccc(Cl)c1Cl)N1CCN(c2ccc(OCCCN3CCCCC3)cc2)CC1 [Example E105] | > 6.5 pKb | > 6.5 pKb | – |
| COc1ccc(C(=O)N2CCN(c3ccc(OCCCN4CCCCC4)cc3)CC2)cc1C(C)C [Example E117] | > 6.5 pKb | > 6.5 pKb | – |
| CC(C)(C)Oc1cccc(C(=O)N2CCN(c3ccc(OCCCN4CCCCC4)cc3)CC2)c1 [Example E89] | > 6.5 pKb | > 6.5 pKb | – |
| COC(=O)COc1ccc(C(=O)N2CCN(c3ccc(OCCCN4CCCC(C)(C)C4)cc3)CC2)cc1.O=C(O)C(F)(F)F [Example E221] | > 6.5 pKb | > 6.5 pKb | – |
| CCC1CCC(C)N(CCCOc2ccc(N3CCN(C(=O)c4cc(C(C)C)ccc4C)CC3)cc2)C1 (stereo not drawn) [Example E223] | > 6.5 pKb | > 6.5 pKb | – |
| O=C(c1cccc(F)c1Cl)N1CCN(c2ccc(OCCCN3CCCCC3)cc2)CC1 [Example E103] | > 6.5 pKb | > 6.5 pKb | – |
| C=Cc1cccc(C(=O)N2CCN(c3ccc(OCCCN4CCCC(C)C4)cc3)CC2)c1 (stereo not drawn) [Example E197] | > 6.5 pKb | > 6.5 pKb | – |

| SMILES | antagonism in the histamine H1 functional antagonist assay (pKb) (human H1 receptor) | antagonism in the histamine H3 functional antagonist assay (pKb) (histamine H3 receptor) | further results |
| --- | --- | --- | --- |
| CCC1CCC(C)N(CCCOc2ccc(N3CCN(C(=O)c4cc(C)ccc4C)CC3)cc2)C1 (stereo not drawn) [Example E134] | > 6.5 pKb | > 6.5 pKb | – |
| COc1cc(C(=O)N2CCN(c3ccc(OCCCN4CCCCC4)cc3)CC2)cc(Cl)n1 [Example E102] | > 6.5 pKb | > 6.5 pKb | – |
| O=C(c1cccc2ccccc12)N1CCN(CCc2ccc(OCCN3CCCCCC3)cc2)CC1.O=CO [Example E479] | > 6.5 pKb | > 6.5 pKb | – |
| COC(=O)COc1ccc(C(=O)N2CCN(c3ccc(OCCCN4CCCC(C)(C)C4)cc3)CC2)c2ccccc12.O=C(O)C(F)(F)F [Example E216] | > 7.3 pKb | > 6.5 pKb | antagonism in the histamine H1 functional antagonist assay (pKb) (human H1 receptor; listed as Example E216): > 6.5 pKb |
| COc1ccc(C)cc1C(=O)N1CCN(c2ccc(OCCCN3CCCCC3C)cc2)CC1 (stereo not drawn) [Example E155] | > 6.5 pKb | > 6.5 pKb | – |
| Cc1ccc(C(C)C)c(C(=O)N2CCN(c3ccc(OCCCN4CCCC(C)C4)cc3)CC2)c1 (stereo not drawn) [Example E188] | > 7.3 pKb | > 6.5 pKb | antagonism in the histamine H1 functional antagonist assay (pKb) (human H1 receptor; listed as Example E188): > 6.5 pKb |
| Cc1ccc(C)c(C(=O)N2CCN(c3ccc(OCCCN4CCCC(C)C4)cc3)CC2)c1 (stereo not drawn) [Example E202] | > 6.5 pKb | > 6.5 pKb | – |
| CCC1CCC(C)N(CCCOc2ccc(N3CCN(C(=O)c4ccc(OCC(=O)OC)c5ccccc45)CC3)cc2)C1 (stereo not drawn) [Example E136] | > 7.3 pKb | > 6.5 pKb | antagonism in the histamine H1 functional antagonist assay (pKb) (human H1 receptor; listed as Example E136): > 6.5 pKb |
| Cc1c(C)c(C)c(C(=O)N2CCN(c3ccc(OCCCN4CCCCC4)cc3)CC2)c(C)c1C [Example E118] | > 6.5 pKb | > 6.5 pKb | – |
| O=C(O)C(F)(F)F.c1ccc(N2CCN(CCc3cccc(OCCCN4CCCCC4)c3)CC2)cc1 [Example E244] | > 7.3 pKb | > 6.5 pKb | antagonism in the histamine H1 functional antagonist assay (pKb) (human H1 receptor; listed as Example E244): > 6.5 pKb |
| C=Cc1cccc(C(=O)N2CCN(c3ccc(OCCCN4CC(CC)CCC4C)cc3)CC2)c1 (stereo not drawn) [Example E138] | > 6.5 pKb | > 6.5 pKb | – |
| CC(C)Oc1cccc(C(=O)N2CCN(c3ccc(OCCCN4CCCCC4)cc3)CC2)c1 [Example E79] | > 6.5 pKb | > 6.5 pKb | – |
| CC1(C)CCCN(CCCOc2ccc(N3CCN(C(=O)c4cccc5ccccc45)CC3)cc2)C1.O=C(O)C(F)(F)F [Example E151] | – | > 6.5 pKb | antagonism in the histamine H1 functional antagonist assay (pKb) (human H1 receptor; listed as Example E151): > 6.5 pKb |
| Cc1cc(Br)ccc1C(=O)N1CCN(c2ccc(OCCCN3CCCC(C)(C)C3)cc2)CC1.O=C(O)C(F)(F)F [Example E212] | > 7.3 pKb | > 6.5 pKb | antagonism in the histamine H1 functional antagonist assay (pKb) (human H1 receptor; listed as Example E212): > 6.5 pKb |
| COc1ccc(F)c(C(=O)N2CCN(c3ccc(OCCCN4CCCCC4)cc3)CC2)c1 [Example E92] | > 6.5 pKb | > 6.5 pKb | – |
| COc1ccc(C)cc1C(=O)N1CCN(c2ccc(OCCCN3CCCC(C)C3)cc2)CC1 (stereo not drawn) [Example E204] | > 6.5 pKb | > 6.5 pKb | – |
| Cc1ccc(C(C)C)cc1C(=O)N1CCN(c2ccc(OCCCN(C)C3CCCC3)cc2)CC1 [Example E177] | > 6.5 pKb | > 6.5 pKb | – |
| O=C(c1cccc2ccccc12)N1CCN(c2ccc(OCCCN3CCCCC3)cc2Br)CC1 [Example E226, 1-(2-Bromo-4-{[3-(1-piperidinyl)propyl]oxy}phenyl)-4-(1-naphthalenylcarbonyl)piperazine] | > 6.5 pKb | > 6.5 pKb | – |
